# Assay results published in PubChem BioAssay AID488969 (Vanderbilt High Throughput Screening Facility, 2010).
# In all, about 110,000 compounds were measured (“z-score”: median about -0.1, highest 2% from about 2 on). The list shows a part of the results.
# Target: Metabotropic glutamate receptor 8 (Rattus norvegicus) (UniProt P70579)
# Experiment: mGluR8 Gi/Go-coupled signaling modulation – cell-based, rat, thallium flux, HTS, primary screen (AID 488969)
# Conditions: HEK293 rat mGluR8, GIRK (G protein-gated inwardly rectifying potassium channel) thallium flux, FluoZin2; at 10 µM; stronger effect = higher value; submaximal glutamate (EC20) added with thallium
# Sequence of UniProt P70579 (P70579 whole entry, looked up): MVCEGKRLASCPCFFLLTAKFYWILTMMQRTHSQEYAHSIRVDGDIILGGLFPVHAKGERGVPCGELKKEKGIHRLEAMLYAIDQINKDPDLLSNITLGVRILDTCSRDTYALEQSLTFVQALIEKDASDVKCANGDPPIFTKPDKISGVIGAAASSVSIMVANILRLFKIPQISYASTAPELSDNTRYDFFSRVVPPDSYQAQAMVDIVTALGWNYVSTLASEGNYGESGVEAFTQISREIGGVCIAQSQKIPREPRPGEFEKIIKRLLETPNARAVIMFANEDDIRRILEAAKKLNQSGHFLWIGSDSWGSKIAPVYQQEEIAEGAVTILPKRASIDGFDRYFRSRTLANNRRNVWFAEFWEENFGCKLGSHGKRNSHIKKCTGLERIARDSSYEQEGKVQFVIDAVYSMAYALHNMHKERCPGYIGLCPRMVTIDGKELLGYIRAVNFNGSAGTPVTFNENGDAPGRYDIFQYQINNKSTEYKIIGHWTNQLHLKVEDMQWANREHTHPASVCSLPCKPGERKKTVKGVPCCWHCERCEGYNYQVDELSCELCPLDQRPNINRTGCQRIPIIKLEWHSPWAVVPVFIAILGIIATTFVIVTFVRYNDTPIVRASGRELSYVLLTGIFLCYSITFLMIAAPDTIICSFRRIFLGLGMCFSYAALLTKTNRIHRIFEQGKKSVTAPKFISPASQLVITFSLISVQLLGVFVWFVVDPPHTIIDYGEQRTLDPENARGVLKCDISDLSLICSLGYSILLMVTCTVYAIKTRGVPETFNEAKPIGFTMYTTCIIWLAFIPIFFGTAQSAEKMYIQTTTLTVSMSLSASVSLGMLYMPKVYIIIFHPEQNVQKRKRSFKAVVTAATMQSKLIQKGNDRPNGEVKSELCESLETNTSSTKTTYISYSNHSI
row,Compound,z-score
1,Cc1nnc2ccc(N3CCC4(CC3)OCCO4)nn12,0.165
2,O=C(NCC(=O)N(Cc1ccccc1)C(C(=O)NC1CCCC1)c1ccco1)c1ccco1 (stereo not given),0.256
3,O=c1[nH]c(=O)n(Cc2ccco2)c2c1C(C(F)(F)F)(C(F)(F)F)N=C(c1ccco1)N2,-0.261
4,Cc1cc(/C=C2\SC(=S)N(Cc3ccco3)C2=O)c(C)n1-c1cccnc1,-0.379
5,COc1cc(/C=N/NC(=O)c2ccc(COc3cc(C)ccc3C(C)C)cc2)cc(OC)c1O,0.637
6,O=C(Nc1cccc(-c2nc3ccccc3s2)c1)c1cc(-n2cnnc2)ccc1Cl,-0.00826
7,O=S(=O)(N/N=C/c1ccc2c(c1)OCCO2)c1ccc(Cl)cc1,-0.0904
8,CCN(Cc1ccccc1)C(=O)COC(=O)CNS(=O)(=O)c1ccc(C)cc1,-0.678
9,CCCCNC(=O)CCn1c(=S)[nH]c2cc3c(cc2c1=O)OCO3,-0.19
10,COc1ccc(C2C(=O)N(C3CCCCC3)CC(=O)N2Cc2ccco2)cc1 (stereo not given),-0.04
11,O=C(NCc1cccnc1)c1cccnc1Sc1ccc(Cl)cc1,-0.442
12,COc1ccc(NC2=CC(c3ccc(F)cc3)N(c3ccc(OC)cc3)C2=O)cc1 (stereo not given),-0.217
13,CC(=O)CCc1c(C)[nH]c2ccc(NC(C)=O)cc2c1=O,0.743
14,COc1ccc(/C=N/NC(=O)Nc2cccc3nsnc23)cc1,-0.371
15,O=C(NCc1ccco1)c1ccccc1Nc1ccc(F)cc1,0.261
16,CCNC(=O)c1c(NC(C)=O)sc2c1CCCC2,0.0536
17,COc1ccc(S(=O)(=O)N2CCCCCC2)cc1,-0.509
18,CCOCCn1c(SCc2cccc(C)c2)nc2c1c(=O)[nH]c(=O)n2C,-0.361
19,Cc1nc2ccccc2n1S(=O)(=O)N(C)C,-0.361
20,CN(C)/C=C(\C(=O)c1ccc(Cl)cc1)c1nnnn1-c1ccc(Cl)cc1,-0.0457
21,COc1cccc(Nc2nnc(SCN3C(=O)c4ccccc4C3=O)s2)c1,0.498
22,O=C(CC1NC(=O)NC1=O)Nc1ccccc1 (stereo not given),-0.0926
23,O=C1COc2ccc(C(=O)NCc3ccc4c(c3)OCO4)cc2N1,0.0779
24,Cc1cc(C)cc(Oc2ccc(-c3nnc(-c4ccccc4)o3)cc2[N+](=O)[O-])c1,0.197
25,O=c1c2ccccc2nc(-c2ccc(Cl)cc2Cl)n1CCCn1ccnc1,-0.354
26,CCOCCCn1cnc2c(c1=O)c1nc3ccccc3nc1n2-c1ccc(C)cc1,-0.457
27,COc1ccc(CNC(=O)CCCOc2cc(=O)n(C)c3ccccc23)cc1,0.0421
28,COc1ccc(NC(=O)CCC(=O)N/N=C/c2ccc([N+](=O)[O-])s2)cc1,-0.189
29,CCCS(=O)(=O)N1CCN(S(=O)(=O)c2ccc(F)cc2)CC1,0.369
30,O=C(NCc1ccccn1)c1n[nH]c2ccccc12,0.0289
